Results on 44 compounds are retold here after publication PMC4336329 (PLoS ONE, 2015).

Out of some 310,000 compounds screened, about 14,000 (4.5%) showed an effect of 50% or more. The effect is printed as a negative number. The list shows a part of the results.
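Further: peak tail current of the secondary pulse compared with the same well before compound.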

The target of the test is human ether-à-go-go-related gene (hERG) potassium channel (human, UniProt Q12809). The experiment in a line: primary screen, population patch clamp on CHO cells stably expressing hERG.
human ether-à-go-go-related gene (hERG) potassium channel, sequence (Q12809 whole entry, looked up): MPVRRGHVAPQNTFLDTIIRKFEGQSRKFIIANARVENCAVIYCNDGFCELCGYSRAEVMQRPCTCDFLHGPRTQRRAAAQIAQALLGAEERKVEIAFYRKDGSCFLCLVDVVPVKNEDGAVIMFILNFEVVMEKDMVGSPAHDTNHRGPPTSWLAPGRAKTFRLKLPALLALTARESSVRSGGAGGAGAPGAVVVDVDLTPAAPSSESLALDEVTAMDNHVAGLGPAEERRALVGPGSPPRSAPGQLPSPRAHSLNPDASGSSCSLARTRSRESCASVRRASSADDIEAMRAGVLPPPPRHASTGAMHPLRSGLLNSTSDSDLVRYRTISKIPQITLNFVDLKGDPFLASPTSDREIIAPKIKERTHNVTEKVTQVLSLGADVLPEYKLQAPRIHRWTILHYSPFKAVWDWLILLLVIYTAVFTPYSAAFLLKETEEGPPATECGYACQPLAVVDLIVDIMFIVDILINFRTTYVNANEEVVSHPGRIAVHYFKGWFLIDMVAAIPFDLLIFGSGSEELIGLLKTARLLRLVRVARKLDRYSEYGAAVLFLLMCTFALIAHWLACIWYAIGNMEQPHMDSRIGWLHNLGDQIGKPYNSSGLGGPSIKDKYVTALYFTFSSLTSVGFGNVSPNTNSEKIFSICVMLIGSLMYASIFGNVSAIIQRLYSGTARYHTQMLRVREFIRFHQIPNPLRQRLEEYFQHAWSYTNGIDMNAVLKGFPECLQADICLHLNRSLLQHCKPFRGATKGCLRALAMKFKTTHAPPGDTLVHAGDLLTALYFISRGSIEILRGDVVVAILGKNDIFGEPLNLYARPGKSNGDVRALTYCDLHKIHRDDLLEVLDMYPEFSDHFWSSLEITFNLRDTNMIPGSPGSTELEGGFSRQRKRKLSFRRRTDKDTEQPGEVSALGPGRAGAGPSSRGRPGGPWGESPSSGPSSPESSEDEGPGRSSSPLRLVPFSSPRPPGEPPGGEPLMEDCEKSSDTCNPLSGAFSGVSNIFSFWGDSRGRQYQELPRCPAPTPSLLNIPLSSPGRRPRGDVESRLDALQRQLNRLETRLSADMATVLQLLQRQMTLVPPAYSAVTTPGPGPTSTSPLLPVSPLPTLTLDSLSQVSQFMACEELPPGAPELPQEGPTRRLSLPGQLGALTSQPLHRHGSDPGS
As to `O=C(Oc1ccc2c(-c3ccccc3)cc(=O)oc2c1)c1cccs1`, the “hERG current change (%, negative = inhibition) at 10uM” value was 15.2%.
With `CCN(CCn1cccn1)C(=O)CCc1nnc(C2CCCCC2)o1` the figure was 7%.
Next, `COc1cccc(C(=O)NNC2=CC(=O)CC(C)(C)C2)c1`: -6.27%; `Cc1c(C(=O)OC2CCCCC2)sc2nc[nH]c(=O)c12`: 15.2%.
With `N#Cc1ccc(OCC(O)CN2CCN(C(c3ccccc3)c3ccccc3)CC2)cc1` (centres unmarked) the figure was -72.1%; with `Cc1ccccc1Cn1cc(S(=O)(=O)CC(=O)N2CCCCC2)c2ccccc21`, 7.27%; with `C(/C=C/c1ccccc1)=N/N1CCN(c2ccccc2)CC1`, -3.04%.
Turning to `O=C(NC1CC1)c1sc2cc(Cl)ccc2c1Cl`, the “hERG current change (%, negative = inhibition) at 10uM” value is 2.56%.
Next, `O=C(CN(C1CC1)S(=O)(=O)c1ccc(S(=O)(=O)N2CCCCCC2)cc1)Nc1ccccc1`: 14.8%.
Next, `O=C(COc1ccccc1Cl)N1CCN(c2ccccn2)CC1`: -9.18%; `CCCOc1c(OC)cc(Cl)cc1C1NC(=O)NC(C)=C1C(=O)NCc1ccccc1` (centres unmarked): 5.87%; `COc1ccc(N2CCN(C(CNC(=O)C(=O)NCc3cccnc3)c3ccco3)CC2)cc1` (centres unmarked): -4.27%.
Next, `COc1cc(OC)c(N(C)C(=O)c2cn(C)c(=O)c3cc(OC)c(OC)cc23)cc1Cl`: -15.9%.
As for `O=C(COC(=O)c1ccccn1)Nc1ccccc1Cl`, the “hERG current change (%, negative = inhibition) at 10uM” value is -14.7%.
Next, `N#Cc1ccc(NC(=O)c2cccs2)nc1`: 19%; `Cc1ccc(Nc2nc(=O)c3cccnc3s2)cc1`: -7.04%; `Cc1cc(/C=C2\NC(=O)N(Cc3ccc(Cl)cc3)C2=O)c(C)n1C`: 1.03%.
For `CCOC(=O)c1nc2sc3c(c2c(=O)[nH]1)CCCC3`, the “hERG current change (%, negative = inhibition) at 10uM” value was 3.84%.
Next, `O=C1c2ccccc2C(=O)N1Cc1nc2ccccc2c(=O)n1-c1cccnc1`: 4.77%; `C=CCNC(=S)N/N=C1\CCS(=O)(=O)c2ccccc21`: -34.7%; `Cc1ccc(OCC(=O)NC2CCCCCC2)cc1C`: 19.5%.
`Cc1cccc(Cn2c(N3CCN(CCO)CC3)nc3c2c(=O)[nH]c(=O)n3C)c1`: the “hERG current change (%, negative = inhibition) at 10uM” value is listed as -23.5%.
Next, `CCOC(=O)N1CCC(NC(=O)c2cc(C(=O)NCC(OC)OC)ccc2CO)CC1`: 14.1%; `CC(C)CCNC(=S)Nc1ccc(Br)cc1`: -2.37%.
Next, `Cc1ccc(NC(=O)CN(C)C(=O)CSc2nnc(N)s2)cc1`: -0.69%; `Cc1ccc(S(=O)(=O)Nc2ccc3c(c2)c2c(n3S(=O)(=O)c3ccc(C)cc3)CCCC2=O)cc1`: -24.9%.
Next, `O=C(Nc1cccc(Cl)c1)c1ccccc1`: -8.19%; `COC(=O)c1ccc(Cl)c(-c2ccc(/C=N/NC(=O)Nc3ccccc3)o2)c1`: 18.3%; `CCN(CC)CCSc1nc(O)c(Cc2ccccc2)c(=O)n1-c1ccccc1.Cl`: 15.8%.
Regarding `NC(=O)c1cccc2c3c([nH]c12)CCCC3`, the “hERG current change (%, negative = inhibition) at 10uM” value is recorded as -1.35%.
Next, `CCC1(CC)Cc2ccccc2-c2nc(NN)[nH]c(=O)c21`: 13.7%; `COc1ccc(-n2ncc3c(N4CCN(c5cccc(C)c5C)CC4)ncnc32)cc1`: 17.3%; `C=CCN(Cc1cccc(OC)c1OC)S(=O)(=O)N(C)C`: 0.212%.
With `CS/C(=C(/C#N)S(=O)(=O)c1ccc(Cl)cc1)N1CCOCC1` the figure was -1.37%; with `CCCC(=N)C1=C(O)CC(CC(C)SCC)CC1=O` (centres unmarked), -33.3%.
Next, `CC(c1ccon1)N(C)Cc1cn[nH]c1-c1ccc(F)cc1F` (centres unmarked): -7.46%.
As to `Cc1ccc(CNC(=O)CN(C)S(=O)(=O)c2cccs2)cc1`, the “hERG current change (%, negative = inhibition) at 10uM” value was 0.372%.
With `CCCOc1ccc(N2C(=O)CC(N(Cc3ccco3)C(=O)CCC(=O)O)C2=O)cc1` (centres unmarked) the figure was 21%; with `O=C(c1cc(S(=O)(=O)N2CCOCC2)ccc1Cl)N1CCOCC1`, 6.45%; with `Cc1nn(C)c(Oc2ccccc2)c1CCNS(=O)(=O)c1ccccc1`, -2.05%.
Take `COc1ccc(CSc2nc3ccccc3c(=O)[nH]2)cc1F`: the “hERG current change (%, negative = inhibition) at 10uM” value is on record as 36.6%.
With `COCCN(Cc1cc2cc3c(cc2nc1Cl)OCO3)C(=O)c1cccc(C)c1` the figure was -64.3%; with `Cc1nnc(SCC(=O)NCc2ccc3c(c2)OCO3)n1C`, 25.1%; with `Cc1ccc(NC(=O)c2cc(-c3cc(Cl)ccc3O)n[nH]2)cc1C`, 26.3%.
